Positions count from the first letter of the chain named. No constants are given. Whether binding was seen depends on the method and setting. In cells and extracts the contact can be indirect. Some binding calls cover weakened binding; strength is not graded here. Tags and fused reporters may be left off the sequences shown.
Key:
[1] = biological target: T1, GST-LASP1 (full length LIM and SH3 Protein 1, residues 1–261) (human) (UniProt Q14847); experiment: pull-down; 1.5 nmol GST-LASP1 or its domains on glutathione-agarose beads with 1 mg of 231S total protein lysate, 2 h at 4 °C, washed with lysis buffer (100 mM NaCl, 50 mM Tris pH 8.0, 0.1% deoxycholate, 0.1% IGEPAL CA-630, 5 mM EDTA); Western blot; only the target purified
T1 sequence: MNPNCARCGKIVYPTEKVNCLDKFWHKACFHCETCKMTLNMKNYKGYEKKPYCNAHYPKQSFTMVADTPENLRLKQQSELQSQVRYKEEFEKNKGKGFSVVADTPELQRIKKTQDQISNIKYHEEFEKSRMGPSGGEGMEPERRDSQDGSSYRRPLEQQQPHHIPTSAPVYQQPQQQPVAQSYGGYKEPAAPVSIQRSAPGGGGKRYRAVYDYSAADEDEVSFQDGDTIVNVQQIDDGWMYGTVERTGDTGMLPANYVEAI

By UniProt entry, the sequences of proteins in these tests, tags left out.
UniProt Q9UKV8: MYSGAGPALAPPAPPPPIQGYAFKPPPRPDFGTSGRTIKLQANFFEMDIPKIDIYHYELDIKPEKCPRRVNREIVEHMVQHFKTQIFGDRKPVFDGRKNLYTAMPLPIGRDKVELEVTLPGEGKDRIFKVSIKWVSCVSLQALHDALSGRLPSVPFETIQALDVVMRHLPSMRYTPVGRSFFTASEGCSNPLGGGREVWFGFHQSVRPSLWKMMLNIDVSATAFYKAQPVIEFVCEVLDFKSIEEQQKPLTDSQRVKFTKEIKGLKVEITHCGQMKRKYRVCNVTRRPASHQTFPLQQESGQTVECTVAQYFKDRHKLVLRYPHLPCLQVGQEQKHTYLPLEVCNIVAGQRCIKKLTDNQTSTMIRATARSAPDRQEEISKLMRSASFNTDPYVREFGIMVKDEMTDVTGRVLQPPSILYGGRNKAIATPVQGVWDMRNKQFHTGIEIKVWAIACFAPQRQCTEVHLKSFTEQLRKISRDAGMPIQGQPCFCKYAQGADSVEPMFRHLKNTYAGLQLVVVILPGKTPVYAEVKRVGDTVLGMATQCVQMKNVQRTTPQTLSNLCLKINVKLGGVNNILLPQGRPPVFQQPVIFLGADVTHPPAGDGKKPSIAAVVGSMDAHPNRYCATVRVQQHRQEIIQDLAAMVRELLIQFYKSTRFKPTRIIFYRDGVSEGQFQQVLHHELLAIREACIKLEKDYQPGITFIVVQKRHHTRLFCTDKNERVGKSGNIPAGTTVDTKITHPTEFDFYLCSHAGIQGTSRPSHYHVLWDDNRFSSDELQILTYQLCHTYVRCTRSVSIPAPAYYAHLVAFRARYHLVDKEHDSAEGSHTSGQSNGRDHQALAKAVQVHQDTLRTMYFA

[2] = biological target: T2, GST-LASP1 SH3 domain (residues 200–261) (human) (UniProt Q14847); experiment: as above
T2 sequence: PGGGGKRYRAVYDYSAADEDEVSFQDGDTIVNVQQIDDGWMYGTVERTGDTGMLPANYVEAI

[3] = biological target: T3, GST-LASP1 LIM domain (residues 1–60) (human) (UniProt Q14847); experiment: as above
T3 sequence: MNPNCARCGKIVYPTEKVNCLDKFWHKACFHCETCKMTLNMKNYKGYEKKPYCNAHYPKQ

[4] = biological target: T4, GST-LASP1 S146A/Y171F (human) (UniProt Q14847); experiment: pull-down; 1.5 nmol GST-LASP1 phospho-mutants on glutathione-agarose beads with 1 mg of Bone-Un LASP1 knockout total lysate (Co-IP buffer), 2 h at 4 °C; Western blot for Ago2; only the target purified
T4 sequence: T1 sequence with S146A, Y171F

GST-LASP1 Y171F (human) = biological target: T5, GST-LASP1 Y171F (human) (UniProt Q14847); experiment: as above
T5 sequence: T1 sequence with Y171F

GST-LASP1 S146A (human) = biological target: T6, GST-LASP1 S146A (human) (UniProt Q14847); experiment: as above
T6 sequence: T1 sequence with S146A

GST-LASP1 Y171D (human) = biological target: T7, GST-LASP1 Y171D (human) (UniProt Q14847); experiment: as above
T7 sequence: T1 sequence with Y171D

GST-LASP1 S146D (human) = biological target: T8, GST-LASP1 S146D (human) (UniProt Q14847); experiment: as above
T8 sequence: T1 sequence with S146D

Measured: binding

argonaute 2 (Ago2), endogenous (from UniProt Q9UKV8 1-859)
binds: all assays above

Reference: paper PMC7564666
